Results reported in ChEMBL document CHEMBL4888484, “Replenishing the malaria drug discovery pipeline: Screening and hit evaluation of the MMV Hit Generation Library 1 (HGL1) against asexual blood stage Plasmodium falciparum ,using a nano luciferase reporter read-out” (2022).
Out of some 150,000 compounds screened, about 540 (0.36%) showed an effect of 50% or more. The list shows a part of the results.

Tested on: Plasmodium falciparum
Assay: Primary screen in NF54 nanoGlo assay, in single point, at 2uM, 72h; a lower Z score goes with more inhibition
Format: functional, Erythrocyte
Conditions: timepoint 72 hour

**Q.** How did the “% Inhibition” value turn out when C[C@]1(F)CCN(C(=O)c2ccsn2)C1 was run?
**A.** -1%

**Q.** What about the Z score of the same compound?
**A.** 0.17

**Q.** What does the source list for Cc1cc(C(=O)NCCN2C(=O)COC2=O)nn1C?
**A.** % Inhibition: -7%; Z score: 1.33

**Q.** For CC1CCN(c2nc3c(c(Oc4cccc(F)c4)n2)CN(C(=O)Nc2cccc(Cl)c2)CC3)CC1, which “% Inhibition” value is on record?
**A.** -18%

**Q.** And the Z score?
**A.** 2.82

**Q.** What does the source list for Cc1cccc(C#N)c1/N=C1\CCCN1C?
**A.** % Inhibition: 7%; Z score: -0.82

**Q.** Cc1cc(=O)c(C(=O)N[C@@H](C)c2nc(C3CC3)no2)cn1C was tested. Which “% Inhibition” value did it give?
**A.** -14%

**Q.** What about the Z score of the same compound?
**A.** 2.54

**Q.** What does the source list for CS(=O)(=O)c1ccc(-c2nnc(NC(=O)COc3ccc(Cl)cc3Cl)o2)cc1?
**A.** % Inhibition: -4%; Z score: 0.89

**Q.** How did the “% Inhibition” value turn out when Cc1cncc(C(=O)NC[C@H](O)C2CCCCC2)c1 was run?
**A.** -6%

**Q.** What about the Z score of the same compound?
**A.** 0.63

**Q.** How did the “% Inhibition” value turn out when Cc1cc(C)n(C)c(=O)c1C(=O)Nc1ccccc1CN1CCCCC1 was run?
**A.** -15%

**Q.** What about the Z score of the same compound?
**A.** 1.47

**Q.** With CC(C)Nc1nc(NC2CCCC2)nc(N2CCOCC2)n1 as the compound, how does the “% Inhibition” value read?
**A.** 28%

**Q.** What about the Z score of the same compound?
**A.** -3.31

**Q.** With Cc1ccc2oc(-c3noc(/C=C/c4ccco4)n3)c(C)c2c1 as the compound, how does the “% Inhibition” value read?
**A.** 7%

**Q.** And the Z score?
**A.** -0.84

**Q.** Cc1cc(NCc2cccnc2N2CCN(c3ccccn3)CC2)nc(N)n1 was tested. Which “% Inhibition” value did it give?
**A.** -3%

**Q.** What about the Z score of the same compound?
**A.** 0.37

**Q.** Which “% Inhibition” value does the source give for CCOc1ccc(N2C[C@@H](c3nnc(NC(=O)CCC4CCCC4)o3)CC2=O)cc1 here?
**A.** -6%

**Q.** And the Z score?
**A.** 0.88

**Q.** Which “% Inhibition” value does the source give for O=C(c1ccccc1)N1CCN(C[C@H](O)c2ccco2)CC1 here?
**A.** -10%

**Q.** What about the Z score of the same compound?
**A.** 1.99

**Q.** With O=C(O)CC[C@H]1CCCN(Cc2ccoc2)C1 as the compound, how does the “% Inhibition” value read?
**A.** 6%

**Q.** And the Z score?
**A.** -1.2

**Q.** What does the source list for CCn1ccnc1CN1CC[C@@]2(CCCN(CC3CCCCC3)C2=O)C1?
**A.** % Inhibition: -7%; Z score: 0.99

**Q.** Which “% Inhibition” value does the source give for O=C(NCCc1c[nH]cn1)c1ccc(NC(=O)C2CCC2)cc1 here?
**A.** -10%

**Q.** And the Z score?
**A.** 1.84

**Q.** Which “% Inhibition” value does the source give for Cc1ccc(NC(=O)Cc2nnc(-c3cnccn3)o2)c(C)c1 here?
**A.** -13%

**Q.** What about the Z score of the same compound?
**A.** 1.26

**Q.** For O=C([C@H]1CCc2nccn2C1)N1CCCN(CC2CCC2)CC1, which “% Inhibition” value is on record?
**A.** 4%

**Q.** What about the Z score of the same compound?
**A.** -0.59

**Q.** Cc1cc(Cl)ccc1S(=O)(=O)N1CCn2c(nn(CC3CC3)c2=O)C1 was tested. Which “% Inhibition” value did it give?
**A.** -10%

**Q.** What about the Z score of the same compound?
**A.** 1.78

**Q.** Which “% Inhibition” value does the source give for CS(=O)(=O)NCCc1cccc(Cl)c1 here?
**A.** -4%

**Q.** And the Z score?
**A.** 0.84

**Q.** Which results are given for O=c1n(Cc2ccc3c(c2)OCO3)nc2c(S(=O)(=O)N3CCOCC3)cccn12?
**A.** % Inhibition: 3%; Z score: -0.56

**Q.** How did the “% Inhibition” value turn out when Cc1cc(Oc2cnn(C)c(=O)c2Nc2cccc(C(=O)NCc3ccco3)c2)ccc1Cl was run?
**A.** -25%

**Q.** What about the Z score of the same compound?
**A.** 2.23

**Q.** With CCOc1ncccc1-c1ncccc1C(=O)N1CCCC1 as the compound, how does the “% Inhibition” value read?
**A.** -3%

**Q.** And the Z score?
**A.** 0.46

**Q.** Which “% Inhibition” value does the source give for COc1ccccc1CCN1CC(O)=C(c2nc(C)cs2)C1=N here?
**A.** -7%

**Q.** And the Z score?
**A.** 0.7

**Q.** What does the source list for CC(C)N(Cc1nccn1C)C(=O)c1cccc(-c2cn[nH]c2)c1?
**A.** % Inhibition: 2%; Z score: -0.36

**Q.** Which results are given for Cc1nc(CN2CCC(N3C[C@H](COc4ccc(F)cc4)OCC3=O)CC2)n(C)n1?
**A.** % Inhibition: 0%; Z score: -0.01

**Q.** Which results are given for O=C(CCc1cc2n(n1)CCNC2)Nc1cc(F)cc2c1NC(=O)CC2?
**A.** % Inhibition: -13%; Z score: 1.56

**Q.** Which “% Inhibition” value does the source give for Cc1nc(CN2CCN(Cc3c(C)cccc3C)CC2)n[nH]1 here?
**A.** -1%

**Q.** And the Z score?
**A.** 0.17

**Q.** Which “% Inhibition” value does the source give for COc1cc(-c2nc(Cn3cnc4ccccc43)c(C)o2)cc2c1OCO2 here?
**A.** -10%

**Q.** And the Z score?
**A.** 1.37

**Q.** Which results are given for O=C1C2ON(c3ccccc3)C(c3ccncc3)C2C(=O)N1c1ccc(Cl)c(Cl)c1 (stereo not given)?
**A.** % Inhibition: -17%; Z score: 1.86

**Q.** CCC(NC(=O)C1CC12CCOCC2)c1ccc(Cl)cc1 (stereo not given) was tested. Which “% Inhibition” value did it give?
**A.** -9%

**Q.** And the Z score?
**A.** 1.8

**Q.** Which “% Inhibition” value does the source give for CC[C@]1(O)CCN(c2nc(C(N)=O)cs2)C[C@@H]1O here?
**A.** 1%

**Q.** And the Z score?
**A.** -0.2

**Q.** With O=C(c1cc2sccc2[nH]1)N1CC[C@@]2(CCCN(CC3CC3)C2=O)C1 as the compound, how does the “% Inhibition” value read?
**A.** -10%

**Q.** And the Z score?
**A.** 1.7

**Q.** O=S(=O)(CC1CCCC1)NCC1(CN2CCCC2)CC1 was tested. Which “% Inhibition” value did it give?
**A.** -13%

**Q.** What about the Z score of the same compound?
**A.** 1.63

**Q.** Which “% Inhibition” value does the source give for N#CCC1CCN(C(=O)Nc2ccc3nscc3c2)CC1 here?
**A.** -2%

**Q.** What about the Z score of the same compound?
**A.** 0.26

**Q.** With C[C@H](c1cccc(O)c1)c1nc(C2CCC2)no1 as the compound, how does the “% Inhibition” value read?
**A.** 7%

**Q.** And the Z score?
**A.** -0.78

**Q.** Which results are given for Cc1cnn(Cc2ccccc2Cl)c1NC(=O)Cc1nonc1C?
**A.** % Inhibition: -9%; Z score: 0.9

**Q.** What does the source list for Cc1cc(N[C@@H]2C=C[C@H](CO)C2)n2ncnc2n1?
**A.** % Inhibition: -6%; Z score: 1.1

**Q.** For c1csc([C@H](NCc2nc3ccccc3s2)c2ccc3c(c2)CCC3)c1, which “% Inhibition” value is on record?
**A.** -4%

**Q.** What about the Z score of the same compound?
**A.** 0.69

**Q.** What does the source list for O=C(CCN1CCCC1)NC1(C2CCCC2)CC1?
**A.** % Inhibition: -8%; Z score: 1.38

**Q.** What does the source list for Nc1nc2c(o1)oc1nc(-c3ccccc3)cc(-c3ccccc3)c12?
**A.** % Inhibition: -7%; Z score: 1.29

**Q.** How did the “% Inhibition” value turn out when COc1ccc(C)cc1NC(=O)CN1C(=O)NC2(CCCCCCC2)C1=O was run?
**A.** 1%

**Q.** And the Z score?
**A.** -0.12

**Q.** Which results are given for CCc1cc(NCc2cn([C@H]3CCOC3)nn2)nc(CC)n1?
**A.** % Inhibition: -3%; Z score: 0.32

**Q.** For CCCn1cnnc1CN(C)Cc1cc(OC)c(OC)cc1F, which “% Inhibition” value is on record?
**A.** 2%

**Q.** And the Z score?
**A.** -0.24

**Q.** How did the “% Inhibition” value turn out when O=C(CCOc1ccccc1Br)NCC1CCCC1O (stereo not given) was run?
**A.** -14%

**Q.** What about the Z score of the same compound?
**A.** 2.39

**Q.** How did the “% Inhibition” value turn out when O=C(Nc1cncc(F)c1)N[C@H]1C[C@@H](O)C1 was run?
**A.** -4%

**Q.** What about the Z score of the same compound?
**A.** 0.31

**Q.** What does the source list for Cc1nc2nc(-c3ccco3)nn2c(N2CCN(c3ccccc3F)CC2)c1C?
**A.** % Inhibition: 0%; Z score: -0.03

**Q.** Which “% Inhibition” value does the source give for O=S(=O)(NCc1cc(C(F)(F)F)on1)N1CCCCC1 here?
**A.** 0%

**Q.** What about the Z score of the same compound?
**A.** -0.01

**Q.** Which results are given for CO[C@@H]1C[C@@H](C(=O)N2CC(C)N(Cc3ccccc3)c3ccccc32)N(C(=O)OCc2ccccc2)C1 (stereo not given in full)?
**A.** % Inhibition: 0%; Z score: -0.04

**Q.** What does the source list for COc1ccc(CN2CC[C@H](NC(=O)C3CCC3)C2)cn1?
**A.** % Inhibition: -10%; Z score: 1.35

**Q.** How did the “% Inhibition” value turn out when C[C@H](NC(=O)c1nccnc1C(=O)N1CCCCC1)c1ncnn1C was run?
**A.** 2%

**Q.** What about the Z score of the same compound?
**A.** -0.29

**Q.** For CC(C)CCS(=O)(=O)N1CCC2C(CCC(=O)N2C2CC2)C1 (stereo not given), which “% Inhibition” value is on record?
**A.** -12%

**Q.** What about the Z score of the same compound?
**A.** 1.91

**Q.** How did the “% Inhibition” value turn out when COc1ccccc1CNC(=O)c1ccc(C)nc1C1CCN(Cc2cc(C)c(C)o2)CC1 was run?
**A.** -11%

**Q.** And the Z score?
**A.** 1.16

**Q.** Cc1c(CN2CCCn3nc(CNC(=O)C4CCC4)cc3C2)oc2ccccc12 was tested. Which “% Inhibition” value did it give?
**A.** -17%

**Q.** What about the Z score of the same compound?
**A.** 1.55

**Q.** For CCn1ccnc1[C@H]1CCCN(C(=O)c2cnc(-c3cccnc3)nc2C)C1, which “% Inhibition” value is on record?
**A.** -5%

**Q.** What about the Z score of the same compound?
**A.** 0.94
